Measured values from the CheMixHub viscosity set.
The source gives many values for each of these; only a part stands here.

Experiment: xn = mol fraction of the nth substance listed

CS(C)=O + O
Conditions	viscosity [mPa·s]
293.15 K, 101 kPa, x1 = 0.0275	1.291
293.15 K, 101 kPa, x1 = 0.0594	1.63
293.15 K, 101 kPa, x1 = 0.0965	2.093
293.15 K, 101 kPa, x1 = 0.1408	2.673
293.15 K, 101 kPa, x1 = 0.2628	4.117
293.15 K, 101 kPa, x1 = 0.3526	4.389
293.15 K, 101 kPa, x1 = 0.4782	3.902
298 K, 101 kPa, x1 = 0.01	0.96
298 K, 101 kPa, x2 = 0.33	2.7
298 K, 101 kPa, x2 = 0.43	3.11
298 K, 101 kPa, x2 = 0.52	3.45
298 K, 101 kPa, x2 = 0.59	3.68
298 K, 101 kPa, x2 = 0.65	3.73
298 K, 101 kPa, x2 = 0.7	3.64
298 K, 101 kPa, x2 = 0.78	3.16
298 K, 101 kPa, x2 = 0.81	2.83
298 K, 101 kPa, x2 = 0.84	2.51
298 K, 101 kPa, x2 = 0.89	1.93
298 K, 101 kPa, x2 = 0.91	1.69
298 K, 101 kPa, x2 = 0.93	1.5
298 K, 101 kPa, x2 = 0.96	1.18
298 K, 101 kPa, x2 = 0.98	1.06
298.15 K, 101 kPa, x1 = 0.08921	1.69
298.15 K, 101 kPa, x1 = 0.8856	2.175
298.15 K, 101.33 kPa, x1 = 0.025	1.097
298.15 K, 101.33 kPa, x1 = 0.055	1.35
298.15 K, 101.33 kPa, x1 = 0.09	1.719
298.15 K, 101.33 kPa, x1 = 0.09717	1.854
298.15 K, 101.33 kPa, x1 = 0.13	2.238
298.15 K, 101.33 kPa, x1 = 0.19	2.829
298.15 K, 101.33 kPa, x1 = 0.2026	3.03
298.15 K, 101.33 kPa, x1 = 0.26	3.459
298.15 K, 101.33 kPa, x1 = 0.48	3.45
298.15 K, 101.33 kPa, x1 = 0.5054	3.344
298.15 K, 101.33 kPa, x1 = 0.5937	2.976
298.15 K, 101.33 kPa, x1 = 0.67	2.278
298.15 K, 101.33 kPa, x1 = 0.6965	2.602
298.15 K, 101.33 kPa, x1 = 0.8321	2.264
298.15 K, 101.33 kPa, x1 = 0.9096	2.124
303.15 K, 101 kPa, x1 = 0.0036	0.814
303.15 K, 101 kPa, x1 = 0.0072	0.837
303.15 K, 101 kPa, x1 = 0.011	0.854
303.15 K, 101 kPa, x1 = 0.014	0.877
303.15 K, 101 kPa, x1 = 0.0177	0.901
303.15 K, 101 kPa, x1 = 0.0275	1.019
303.15 K, 101 kPa, x1 = 0.0594	1.269
303.15 K, 101 kPa, x1 = 0.06619	1.27
303.15 K, 101 kPa, x1 = 0.08921	1.48
303.15 K, 101 kPa, x1 = 0.0965	1.598
303.15 K, 101 kPa, x1 = 0.1408	2.004
303.15 K, 101 kPa, x1 = 0.2628	3.014
303.15 K, 101 kPa, x1 = 0.4782	2.924
303.15 K, 101 kPa, x1 = 0.8856	2.005
303.15 K, 101.33 kPa, x1 = 0.025	0.9948
303.15 K, 101.33 kPa, x1 = 0.055	1.205
303.15 K, 101.33 kPa, x1 = 0.09	1.506
303.15 K, 101.33 kPa, x1 = 0.1	1.609
303.15 K, 101.33 kPa, x1 = 0.13	1.977
303.15 K, 101.33 kPa, x1 = 0.19	2.55
303.15 K, 101.33 kPa, x1 = 0.2003	2.539
303.15 K, 101.33 kPa, x1 = 0.26	3.065
303.15 K, 101.33 kPa, x1 = 0.3023	3.149
303.15 K, 101.33 kPa, x1 = 0.3494	3.217
303.15 K, 101.33 kPa, x1 = 0.35	3.306
303.15 K, 101.33 kPa, x1 = 0.4044	3.191
303.15 K, 101.33 kPa, x1 = 0.48	3.151
303.15 K, 101.33 kPa, x1 = 0.5003	2.983
303.15 K, 101.33 kPa, x1 = 0.5974	2.674
303.15 K, 101.33 kPa, x1 = 0.67	2.066
303.15 K, 101.33 kPa, x1 = 0.6975	2.364
303.15 K, 101.33 kPa, x1 = 0.8999	1.911
308.15 K, 101 kPa, x1 = 0.0036	0.74
308.15 K, 101 kPa, x1 = 0.0072	0.762
308.15 K, 101 kPa, x1 = 0.011	0.781
308.15 K, 101 kPa, x1 = 0.014	0.8
308.15 K, 101 kPa, x1 = 0.0177	0.819
308.15 K, 101 kPa, x1 = 0.6195	2.355
308.15 K, 101.33 kPa, x1 = 0.025	0.9157
308.15 K, 101.33 kPa, x1 = 0.055	1.093
308.15 K, 101.33 kPa, x1 = 0.09	1.342
308.15 K, 101.33 kPa, x1 = 0.09717	1.442
308.15 K, 101.33 kPa, x1 = 0.1	1.421
308.15 K, 101.33 kPa, x1 = 0.13	1.735
308.15 K, 101.33 kPa, x1 = 0.19	2.291
308.15 K, 101.33 kPa, x1 = 0.2003	2.217
308.15 K, 101.33 kPa, x1 = 0.2026	2.303
308.15 K, 101.33 kPa, x1 = 0.26	2.681
308.15 K, 101.33 kPa, x1 = 0.3023	2.725
308.15 K, 101.33 kPa, x1 = 0.3208	2.819
308.15 K, 101.33 kPa, x1 = 0.35	2.942
308.15 K, 101.33 kPa, x1 = 0.4044	2.774
308.15 K, 101.33 kPa, x1 = 0.48	2.734
308.15 K, 101.33 kPa, x1 = 0.5003	2.627
308.15 K, 101.33 kPa, x1 = 0.5054	2.583
308.15 K, 101.33 kPa, x1 = 0.5937	2.336
308.15 K, 101.33 kPa, x1 = 0.5974	2.372
308.15 K, 101.33 kPa, x1 = 0.67	1.871
308.15 K, 101.33 kPa, x1 = 0.6965	2.095
308.15 K, 101.33 kPa, x1 = 0.6975	2.128
308.15 K, 101.33 kPa, x1 = 0.8321	1.848
308.15 K, 101.33 kPa, x1 = 0.8999	1.737
313.15 K, 101 kPa, x1 = 0.0036	0.67
313.15 K, 101 kPa, x1 = 0.0072	0.688
313.15 K, 101 kPa, x1 = 0.011	0.709
313.15 K, 101 kPa, x1 = 0.014	0.725
313.15 K, 101 kPa, x1 = 0.0177	0.742
313.15 K, 101 kPa, x1 = 0.0275	0.8362
313.15 K, 101 kPa, x1 = 0.0594	1.028
313.15 K, 101 kPa, x1 = 0.08921	1.15
313.15 K, 101 kPa, x1 = 0.0965	1.24
313.15 K, 101 kPa, x1 = 0.2628	2.283
313.15 K, 101 kPa, x1 = 0.3526	2.456
313.15 K, 101 kPa, x1 = 0.4782	2.334
313.15 K, 101.33 kPa, x1 = 0.025	0.7948
313.15 K, 101.33 kPa, x1 = 0.055	0.9555
313.15 K, 101.33 kPa, x1 = 0.09	1.198
313.15 K, 101.33 kPa, x1 = 0.1	1.26
313.15 K, 101.33 kPa, x1 = 0.19	1.911
313.15 K, 101.33 kPa, x1 = 0.2003	1.937
313.15 K, 101.33 kPa, x1 = 0.26	2.25
313.15 K, 101.33 kPa, x1 = 0.3023	2.377
313.15 K, 101.33 kPa, x1 = 0.3494	2.444
313.15 K, 101.33 kPa, x1 = 0.35	2.55
313.15 K, 101.33 kPa, x1 = 0.4044	2.447
313.15 K, 101.33 kPa, x1 = 0.48	2.478
313.15 K, 101.33 kPa, x1 = 0.5003	2.325
313.15 K, 101.33 kPa, x1 = 0.5974	2.119
313.15 K, 101.33 kPa, x1 = 0.67	1.671
313.15 K, 101.33 kPa, x1 = 0.6975	1.912
313.15 K, 101.33 kPa, x1 = 0.7981	1.742
313.15 K, 101.33 kPa, x1 = 0.8999	1.584
318.15 K, 101 kPa, x1 = 0.5193	2.025
318.15 K, 101 kPa, x2 = 0.702	2.102
318.15 K, 101 kPa, x2 = 0.743	1.985
318.15 K, 101 kPa, x2 = 0.812	1.672
318.15 K, 101 kPa, x2 = 0.867	1.346
318.15 K, 101 kPa, x2 = 0.91	1.086
318.15 K, 101 kPa, x2 = 0.945	0.88
318.15 K, 101 kPa, x2 = 0.975	0.724
318.15 K, 101.33 kPa, x1 = 0.025	0.7098
318.15 K, 101.33 kPa, x1 = 0.055	0.8496
318.15 K, 101.33 kPa, x1 = 0.09	1.059
318.15 K, 101.33 kPa, x1 = 0.09717	1.139
318.15 K, 101.33 kPa, x1 = 0.1	1.131
318.15 K, 101.33 kPa, x1 = 0.13	1.32
318.15 K, 101.33 kPa, x1 = 0.19	1.65
318.15 K, 101.33 kPa, x1 = 0.2003	1.713
318.15 K, 101.33 kPa, x1 = 0.3023	2.093
318.15 K, 101.33 kPa, x1 = 0.35	2.35
318.15 K, 101.33 kPa, x1 = 0.4044	2.164
318.15 K, 101.33 kPa, x1 = 0.4137	2.162
318.15 K, 101.33 kPa, x1 = 0.48	2.065
318.15 K, 101.33 kPa, x1 = 0.5003	2.076
318.15 K, 101.33 kPa, x1 = 0.5937	1.874
318.15 K, 101.33 kPa, x1 = 0.67	1.54
318.15 K, 101.33 kPa, x1 = 0.6965	1.705
318.15 K, 101.33 kPa, x1 = 0.6975	1.738
318.15 K, 101.33 kPa, x1 = 0.7981	1.588
318.15 K, 101.33 kPa, x1 = 0.8321	1.53
318.15 K, 101.33 kPa, x1 = 0.8999	1.457
318.15 K, 101.33 kPa, x1 = 0.9096	1.457
323.15 K, 101 kPa, x1 = 0.0275	0.7037
323.15 K, 101 kPa, x1 = 0.0594	0.8485
323.15 K, 101 kPa, x1 = 0.06619	0.84
323.15 K, 101 kPa, x1 = 0.08921	0.96
323.15 K, 101 kPa, x1 = 0.0965	1.038
323.15 K, 101 kPa, x1 = 0.1408	1.262
323.15 K, 101 kPa, x1 = 0.2628	1.804
323.15 K, 101 kPa, x1 = 0.3526	1.884
323.15 K, 101 kPa, x1 = 0.4782	1.934
323.15 K, 101.33 kPa, x1 = 0.1	1.019
323.15 K, 101.33 kPa, x1 = 0.2003	1.521
323.15 K, 101.33 kPa, x1 = 0.3023	1.855
323.15 K, 101.33 kPa, x1 = 0.3494	1.907
323.15 K, 101.33 kPa, x1 = 0.4044	1.942
323.15 K, 101.33 kPa, x1 = 0.5003	1.853
323.15 K, 101.33 kPa, x1 = 0.5974	1.721
323.15 K, 101.33 kPa, x1 = 0.6975	1.573
323.15 K, 101.33 kPa, x1 = 0.7981	1.454
323.15 K, 101.33 kPa, x1 = 0.8999	1.339
